# Reference: PMC7819943, “Rice protein-binding microarrays: a tool to detect cis-acting elements near promoter regions in rice”
# This is one part of the list.
# Biological target: T1, OsWOX13 (Oryza sativa, UniProt Q5QMM3 1-267)
# T1 sequence: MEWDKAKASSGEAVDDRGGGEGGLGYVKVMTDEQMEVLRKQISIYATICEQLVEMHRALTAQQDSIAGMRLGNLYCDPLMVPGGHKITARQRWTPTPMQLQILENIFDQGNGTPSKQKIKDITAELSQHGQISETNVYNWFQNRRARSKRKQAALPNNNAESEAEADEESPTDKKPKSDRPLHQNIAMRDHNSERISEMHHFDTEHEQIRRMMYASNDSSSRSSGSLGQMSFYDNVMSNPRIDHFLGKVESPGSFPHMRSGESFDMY
# Test: protein-binding microarray (RPBM); PBS, 2% BSA, 51.3 ng/ul salmon testes DNA, 50 uM zinc acetate, 200 nM TF, 25 C, 1 h; high values mean tight binding
# Settings: protein: recombinant; tags: N-terminal polyhistidine and DsRed monomer fusion (pET32a); label: CyDye5-dUTP incorporated in the synthesized complementary strand; 3' TTTTT single-stranded linker to array surface; dsDNA, one strand shown
# In short: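 Transcription factors, each fused N-terminally to a polyhistidine tag and DsRed, were expressed in E. coli BL21-CodonPlus and purified on Ni–NTA. A custom Agilent array was made double-stranded by primer extension with Cy5-dUTP and blocked with 2% BSA. It was incubated with 200 nM protein in PBS, 2% BSA, salmon testes DNA and 50 µM zinc acetate at 25 °C for 1 h, then washed. The binding signal is per-feature fluorescence intensity (arbitrary units) read on an Axon 4000B scanner.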
row,Sequence,binding signal
1,AAGAAATTAATTGTTGAAAAGATATCATCCAGCACCCCTACGGAGTCACCTAGTGCAG,24200 fluorescence intensity (a.u.)
2,CGCTAATTTATTAGGTATGACCTTGTTTATAGGGTTCTCACGGAGTCACCTAGTGCAG,23300 fluorescence intensity (a.u.)
3,AAATTAATTTATTAAAGCTTCATCATGGACATGTTCTCGGCGGAGTCACCTAGTGCAG,26100 fluorescence intensity (a.u.)
4,GCAAACATATTGTGTTTATCAATCTAAATCACAAGAAGATCGGAGTCACCTAGTGCAG,4130 fluorescence intensity (a.u.)
5,GGAAGGAATCGGTTTCTGATGATTGATGAACAGTAAAATCCGGAGTCACCTAGTGCAG,5290 fluorescence intensity (a.u.)
6,TTACATATTAACTTGAGATGATCGGAATCACAATTGCAGACGGAGTCACCTAGTGCAG,3320 fluorescence intensity (a.u.)
7,CCAAGACATAATGTGTGTATGACAGATGGGACCATATATTCGGAGTCACCTAGTGCAG,4220 fluorescence intensity (a.u.)
8,TTGAATAAGTGATTGATGATATTAATACTCTATCGTGGTACGGAGTCACCTAGTGCAG,40000 fluorescence intensity (a.u.)
9,TAGAATCATAATAGAATATAATTAGTGTTATTCCTGGCAACGGAGTCACCTAGTGCAG,9980 fluorescence intensity (a.u.)
10,CACAATTGGCCCGTTTATTCTGTTCTATCCACGACTCTCTCGGAGTCACCTAGTGCAG,6440 fluorescence intensity (a.u.)
11,TTGAAATTTGATAAAATTCAATCCAAATTTGAAACTTTCTCGGAGTCACCTAGTGCAG,11600 fluorescence intensity (a.u.)
12,CTAAATGCTGAAGAGATGATAGATTATCTGATTTTATGATCGGAGTCACCTAGTGCAG,3740 fluorescence intensity (a.u.)
13,TTCTTGTTGAAATTTGTAATTTATGATGCATGAGGCCACACGGAGTCACCTAGTGCAG,6120 fluorescence intensity (a.u.)
14,CGTATACGCTAATTAGCAAATCTAGTACAATAGTACTATGCGGAGTCACCTAGTGCAG,32700 fluorescence intensity (a.u.)
15,ATTGATTTGAGAGAGAAACAATAATTTTGTAGTGTTCTATCGGAGTCACCTAGTGCAG,32400 fluorescence intensity (a.u.)
16,GAGTTAGATTGAGAAGTTATAACCATGTCAAACATGCTCTCGGAGTCACCTAGTGCAG,24700 fluorescence intensity (a.u.)
17,GCGCTGATACTTGTAATCAATCAACTCATCAGCATGGTCTCGGAGTCACCTAGTGCAG,26100 fluorescence intensity (a.u.)
18,ATAGTGATATAAATAATAATTACTATTTGTTGCCTTCTTTCGGAGTCACCTAGTGCAG,7510 fluorescence intensity (a.u.)
19,CTGTTTAATTAATGAGAGGTACCGTATTGTTTTCTTTTCACGGAGTCACCTAGTGCAG,17600 fluorescence intensity (a.u.)
20,GAACTGTACGGCTCAGATTAATTGATCAGCTGCTCCTCGCCGGAGTCACCTAGTGCAG,4370 fluorescence intensity (a.u.)
21,GGTAGATAGATGCAGTGATCGATGCACTAGTATTACATGGCGGAGTCACCTAGTGCAG,5460 fluorescence intensity (a.u.)

row,Sequence,binding signal
1,TATCTTCATGATTGACTACCTTTCTAACTACAAGTTGTAACGGAGTCACCTAGTGCAG,25000 fluorescence intensity (a.u.)
2,TTAGATTAGATGGATAGTATTGTATTATATCCGATTTGTTCGGAGTCACCTAGTGCAG,27500 fluorescence intensity (a.u.)
3,GCAGAAATGATTGCACTTCAATTATTGAGTAAAACAGATTCGGAGTCACCTAGTGCAG,30000 fluorescence intensity (a.u.)
4,CACATAATTTTGGGTATTATGGTTTAAAAGTTTCACAAAACGGAGTCACCTAGTGCAG,3600 fluorescence intensity (a.u.)
5,TTGCAGATGCAAATTAATTCCTATATATATATGAACGCTGCGGAGTCACCTAGTGCAG,4070 fluorescence intensity (a.u.)
6,TTAAACAGGATATGGAGGATTTTCTTACTTAATGGAGCCTCGGAGTCACCTAGTGCAG,12100 fluorescence intensity (a.u.)
7,CGTATAGATAATTTTGGATTTGAGTTTTATGGCTCCTGTTCGGAGTCACCTAGTGCAG,6510 fluorescence intensity (a.u.)
8,TGTAGATTAGATCCCTCGGTGGTTTTGCACCCGGTTTTGTCGGAGTCACCTAGTGCAG,6030 fluorescence intensity (a.u.)
9,TATAATTAACAAACAAAATTCAGAATGATCAAACTGGCTACGGAGTCACCTAGTGCAG,18800 fluorescence intensity (a.u.)
10,TTCGACAAATTAAGGTGCCACTCACAGAAGCTAAGCACTGCGGAGTCACCTAGTGCAG,3710 fluorescence intensity (a.u.)
11,ATAATTCTTGACGATAAACTAATTGTTGCCCAAAATCCAACGGAGTCACCTAGTGCAG,3330 fluorescence intensity (a.u.)
12,GTGTTTGATTATTCGTTCCGGTGTGCGCGAAAGCGGGGAACGGAGTCACCTAGTGCAG,7540 fluorescence intensity (a.u.)
13,CTTGATTTCTACATCGACTAACCAAAGTTAGAGAAAGATGCGGAGTCACCTAGTGCAG,5580 fluorescence intensity (a.u.)
14,ACCTGATAGATTCCAAGATGCACTTGCTCGGATATTGCAGCGGAGTCACCTAGTGCAG,29100 fluorescence intensity (a.u.)
15,AAAATTGCTATAAATTGTATTGGCGAAGAGCAGTTTTGGCCGGAGTCACCTAGTGCAG,13500 fluorescence intensity (a.u.)
16,ACTTTAATAATTGGATTCTGGATATAGGCAATGGTAAAATCGGAGTCACCTAGTGCAG,10200 fluorescence intensity (a.u.)
17,GTATCAATCCCCTTTTCATTTGTTAAAGAAAATGTTAAAACGGAGTCACCTAGTGCAG,5170 fluorescence intensity (a.u.)
18,ATCTCAATCTCAGGTTTGATGAAAACGACCACGTCATCGGCGGAGTCACCTAGTGCAG,3240 fluorescence intensity (a.u.)
19,GCTGTTATTGGTTTCAAATTTTCATCTAGCTCCTAATTGTCGGAGTCACCTAGTGCAG,4460 fluorescence intensity (a.u.)
20,CTAGATAGATTTATATGTTTAAATTTATTAACATCAATATCGGAGTCACCTAGTGCAG,17200 fluorescence intensity (a.u.)
21,ATGATTGACATGTTCGATGACATAATCCAAAGTAATAACGCGGAGTCACCTAGTGCAG,48800 fluorescence intensity (a.u.)
